Laboratory results published in PubChem BioAssay AID1645887 (National Center for Advancing Translational Sciences (NCATS), 2021).
Where “and” joins values, the source holds several entries; their conditions need not be identical. Equal values may be shown once. Screen size: about 16,000 compounds; about 40 (0.2%) were called active. About 1% were inconclusive and are not listed. Calls come from the whole dose curve; as a rule, active = well fitted activation curve with a large enough effect; inconclusive = small, poorly fitted or top-dose-only effect, or another doubt; inactive = no such curve, though single readings can be large or run the other way. The list shows a part of the results. Non-standard residues stand in square brackets, D forms with d. Residues, ends and D or L forms follow the SMILES beside them. pGlu = O=C1CC[C@@H](C(=O)O)N1; Thz = O=C(O)[C@@H]1CSCN1

These compounds were tested against Rap guanine nucleotide exchange factor 4 (Homo sapiens) (UniProt Q8WZA2) (assay: Validation qHTS for agonist of cAMP-regulated guanine nucleotide exchange factor 4 (EPAC2)). Conditions: EPAC2 Rap1B BODIPY-GDP exchange, fluorescence; activation: active compounds read high.
Chain of UniProt Q8WZA2 (Q8WZA2 whole entry, looked up): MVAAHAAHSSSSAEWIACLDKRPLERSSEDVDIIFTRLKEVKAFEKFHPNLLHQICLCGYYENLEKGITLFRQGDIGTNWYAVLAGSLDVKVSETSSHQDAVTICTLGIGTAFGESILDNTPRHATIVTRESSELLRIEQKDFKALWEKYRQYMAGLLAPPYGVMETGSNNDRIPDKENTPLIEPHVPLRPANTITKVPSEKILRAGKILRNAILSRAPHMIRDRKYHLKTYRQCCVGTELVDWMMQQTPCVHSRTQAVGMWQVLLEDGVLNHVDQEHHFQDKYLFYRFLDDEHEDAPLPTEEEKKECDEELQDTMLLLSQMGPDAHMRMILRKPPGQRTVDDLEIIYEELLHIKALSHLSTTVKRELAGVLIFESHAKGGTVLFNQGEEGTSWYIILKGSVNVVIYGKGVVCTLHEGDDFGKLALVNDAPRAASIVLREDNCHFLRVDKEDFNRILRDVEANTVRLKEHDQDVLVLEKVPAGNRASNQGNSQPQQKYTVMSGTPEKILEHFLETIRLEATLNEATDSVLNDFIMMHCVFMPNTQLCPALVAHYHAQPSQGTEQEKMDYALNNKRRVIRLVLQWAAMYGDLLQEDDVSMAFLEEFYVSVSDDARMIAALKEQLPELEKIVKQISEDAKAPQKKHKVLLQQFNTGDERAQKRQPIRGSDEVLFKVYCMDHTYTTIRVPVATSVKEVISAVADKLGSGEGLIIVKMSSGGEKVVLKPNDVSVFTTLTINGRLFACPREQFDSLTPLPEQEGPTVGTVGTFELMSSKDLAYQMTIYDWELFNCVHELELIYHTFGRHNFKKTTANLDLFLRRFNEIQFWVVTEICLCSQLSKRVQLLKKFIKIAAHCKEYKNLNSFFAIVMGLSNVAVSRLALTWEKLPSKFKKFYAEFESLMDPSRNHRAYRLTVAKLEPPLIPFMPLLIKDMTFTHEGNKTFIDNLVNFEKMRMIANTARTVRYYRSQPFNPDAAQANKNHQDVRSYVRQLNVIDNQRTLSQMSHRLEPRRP
Method in brief: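 Signal normalized against 6.5 mM cAMP as agonist control. Mix of EPAC2 (100 nM), RAP1B-BODIPY-GDP (250 nM) and GDP (50 uM) was read kinetically at 480/540 nm, every 5 min over 30 min, after 5 min room-temperature incubation with compound.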
% is set by controls: 0 for no effect and ±100 for the full control effect.
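Note: exchange makes BODIPY-GDP fluorescence drop when released from Rap1B; series mostly up to about 150 µM.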

activation, inactive:
C[C@@](Cc1ccc(O)c(O)c1)(NN)C(=O)O -7.82% and -15.8%
CC(NC(=O)c1cccnc1)c1nnc2n1CCN(Cc1ccc(-c3ccccc3Cl)o1)CC2 (centres undefined) 2.73%
Cc1ccc(SCCN2CCC(NC(=O)OCc3ccccc3)CCC2=O)cc1 (centres undefined) -18.7%
c1cncc(OC2CCN(Cc3ccc4c(c3)CN(Cc3ccc5c(c3)CCO5)CCO4)CC2)c1 -2.1%
COc1ccc(Nc2ncc3nc(-c4cccs4)c(=O)n(Cc4cccc(OC)c4)c3n2)cc1 -12.7%
COC(=O)C1N[C@@H]([C@@H](NC(=O)COc2ccccc2)C(=O)NC2CC2)SC1(C)C (some centres undefined) -15.8%
O=c1c(-c2cc(F)cc(F)c2)nc2cnc(N3CCNCC3)nc2n1-c1ccccc1 -21.8%
COc1ccccc1-c1nc(NC2CC2)c2ccccc2n1 -30.4%
O=c1[nH]cnc2nc[nH]c12 -15.8%
Nc1ccc2nc[nH]c2c1 -7.36%
CCCCCCCCCCCCCCCC[n+]1ccc(CC(O)c2c(C)[nH]c3ccccc23)c2ccccc21 (centres undefined) -32.6%
CC(=O)OC1CC[C@]2(C)C(=CCC3C4CCC(C(C)CCCC(C)C)[C@]4(C)CCC32)C1 (some centres undefined) -16.6%
CC(C)(C)c1ccc(O)c(O)c1 -17.1%
CN1CC(O)C(O)C(O)C1CO (centres undefined) -29.9%
COc1cccc(OC)c1CN1CCC2(CCC(CNC(=O)c3ccn(C)n3)O2)CC1 (centres undefined) -2.73%
Cc1ccc(S(=O)(=O)NCc2ccccc2)cc1 -25.6%
O=C(O)/C=C/C(O)c1ccc(Cl)cc1 (centres undefined) 5.52% and 1.64%
c1ccc(C(c2ccccc2)N2CCCC3(CCNCC3)C2)cc1 -10.4%
C[C@]12CCC(=O)C=C1CC[C@@H]1[C@@H]2CC[C@@]2(C)[C@H]1CC[C@]2(O)C(=O)CO 0.99% and -53.5%
COC(=O)C1=C(C)NC(C)=C(C(=O)OC(C)(C)CN(C)CCC(c2ccccc2)c2ccccc2)C1c1cccc([N+](=O)[O-])c1 (centres undefined) 8.11% and -22%
CC(C)Cc1nc2cc(NS(=O)(=O)N(C)C)cc(C(=O)N3CCN(c4ccccc4)CC3)c2n1C 4.11%
COc1cc(/C=C/C(=O)/C=C(O)/C=C/c2ccc(O)c(OC)c2)ccc1O 29.7%
Nc1nc2c(ncn2C2OC(COC(=O)c3ccccc3)C(OC(=O)c3ccccc3)C2OC(=O)c2ccccc2)c(=O)[nH]1 (centres undefined) -20.2%
COc1ccc(-n2c(=O)c(-c3ccccc3)nc3cncnc32)cc1 -4.71%
Cc1cccc2c(Nc3ccc4c(c3)OCO4)nc(CN3CCC(N4CCCCC4)CC3)nc12 -5.23%
Cc1ccnc2ncccc12 -19%
COc1ccccc1N1CCN(CCCNc2c(C)c(=O)n(C)c(=O)n2C)CC1 -10.7% and -63.3%
O=C1CC[C@@H](C(=O)N2CSC[C@H]2C(=O)O)N1 ([pGlu]-[Thz]-OH) 5.28%
Oc1c(Cl)cc(Cl)c2cccnc12 -11.9%
c1ccc(-c2ccc(C(c3ccccc3)n3ccnc3)cc2)cc1 (centres undefined) -6.7%
COc1cc2ncnc(Nc3cccc(Br)c3)c2cc1OC -2.32%
CN(C)CCC(c1ccc(Br)cc1)c1ccccn1 (centres undefined) -28.9% and -5.6%
CCCCNC(=O)[C@@H]1CC=C[C@@H]2CCN(Cc3ccc(OC)c(OC)c3)C(=O)[C@@H]21 -20.9%
Clc1ccc(-n2cccc2CN2CCOc3ccc(CN4CCOCC4)cc3C2)nc1 -40.4%
COc1cc(Nc2c(C#N)cnc3cc(OCCCN4CCN(C)CC4)c(OC)cc23)c(Cl)cc1Cl -0.507%
COCCNC(=O)c1cn(C2CCN(C3CCCC3)CC2)nn1 2.88%
C[C@@]12CC(=O)C3=C(CCCC3=O)N1CCc1ccccc12 -12.1%
COc1ccc(CNc2ncncc2-c2ccccc2CN(C)C)c(OC)c1 -4.45%
Cc1oc(-c2ccccc2NC(=O)C2CCC2)nc1CNC(=O)c1c(F)ccc(F)c1F -10.3%
COc1cc([C@@H]2c3cc4c(cc3[C@@H](O[C@@H]3O[C@H]5CO[C@@H](C)O[C@@H]5[C@@H](O)[C@H]3O)[C@@H]3COC(=O)[C@@H]23)OCO4)cc(OC)c1O -12.7%
CN(C)c1ccc(-c2nccc(NCc3cccs3)n2)cc1 8.34%
COc1cc(CN2c3ccc(Br)cc3C(=O)CS2(=O)=O)cc(OC)c1 -12.8%
O=[N+]([O-])c1ccc(CSc2ncnc3c2ncn3C2OC(CO)C(O)C2O)cc1 (centres undefined) 0.807%
COc1cccc(Cn2c(=O)c(-c3ccc(Cl)cc3)nc3cncnc32)c1 -18.8%
N#Cc1ccc2c(c1)N(CCCN1CCC(O)CC1)c1ccccc1S2 6.62%
Cn1c(=O)c(CCc2ccccc2)nc2cnc(Nc3ccccc3)nc21 -4.9%
CCC1(c2ccccc2)C(=O)NCNC1=O -11.8% [middle of 4 runs]
CCCCc1oc2ccc(NS(C)(=O)=O)cc2c1C(=O)c1ccc(OCCCN(CCCC)CCCC)cc1 -3.52%
CC(=O)N[C@H](C(=O)O)C(C)(C)SN=O -24.7%
CNCCc1cnc(CCC(c2ccccc2)c2ccccc2)[nH]1 -27.6%
CC[C@](N)(CCC(=O)O)C(=O)O -6.21% and 14.2%
CC(=O)OC1CC(O)C(C)(C)C2CC(OC(C)=O)[C@]3(C)C(CC[C@@]4(C)C(c5ccoc5)OC(=O)C5OC534)[C@]12C (some centres undefined) -2.4%
CCCCCCCCCCCCCCCC[N+](C)(C)Cc1ccccc1 -45.1%
NC(Cn1ccc(=O)c(O)c1)C(=O)O (centres undefined) 0.24%
